# Measured values: the supplement of paper PMC8285479
# Structures can show the parent of a compound that is named as a salt. ± gives the standard deviation of the averaged measurements. The full ranking holds about 1,900 compounds; the median of “normalised cell viability (NPI; 0 = phenylarsine oxide control, 1 = DMSO control)” is about 1, and the lowest 2% start at about 0.039. This is one part of the list.
# Tested on: NCI-H1944
# Assay: normalised cell viability (NPI; 0 = phenylarsine oxide control, 1 = DMSO control) (fraction of DMSO control); NCI-H1944 is a non-small cell lung cancer line; higher = more viable cells (less compound toxicity)
# Details: 6 days
# [1] = glucocorticoid arm: hydrocortisone 2.75 uM co-treatment, compound 1 µM
# [2] = glucocorticoid arm: hydrocortisone 2.75 uM co-treatment, compound 5 µM
# [3] = glucocorticoid arm: hydrocortisone 2.75 uM pre-treated 2 days and continued, compound 1 µM
# [4] = glucocorticoid arm: hydrocortisone 2.75 uM pre-treated 2 days and continued, compound 5 µM
# [5] = glucocorticoid arm: vehicle, compound 1 µM
# [6] = glucocorticoid arm: vehicle, compound 5 µM
# 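Further: CTB read-out in 384-well plates, mean of triplicate wells, normalised per plate against 1 µM phenylarsine oxide and 0.1% DMSO, compounds added 24 h after seeding.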
SMILES,normalised cell viability [1],normalised cell viability [2],normalised cell viability [3],normalised cell viability [4],normalised cell viability [5],normalised cell viability [6]
C=CC(=O)Nc1cccc(Nc2nc(Nc3ccc(OCCOC)cc3)ncc2F)c1,0.9277 ± 0.0042,0.6 ± 0.023,0.939 ± 0.012,0.689 ± 0.076,0.996 ± 0.004,0.464 ± 0.09
N#Cc1c(NC(=O)c2cccc3ccccc23)sc2c1CCCC2 [JNK Inhibitor IX],0.249 ± 0.02,1.02 ± 0.023,0.513 ± 0.029,1.03 ± 0.015,0.0543 ± 0.0025,0.961 ± 0.032
NCCNC(=O)c1ccc(Cl)cc1 [Ro 16-6491 hydrochloride],0.998 ± 0.014,1.02 ± 0.021,1.02 ± 0.015,1.02 ± 0.017,1.001 ± 0.0081,0.991 ± 0.0069
CCC(=O)Nc1cccc(Oc2nc(Nc3ccc(N4CCN(C)CC4)cc3OC)ncc2Cl)c1,1.07 ± 0.017,1.11 ± 0.01,1.057 ± 0.0058,1.07 ± 0.035,1 ± 0.011,1.01 ± 0.01
CCN(CC)CCCCCCCCOC(=O)c1cc(OC)c(OC)c(OC)c1 [TMB-8 hydrochloride],0.979 ± 0.006,0.958 ± 0.0079,0.978 ± 0.013,0.974 ± 0.024,0.971 ± 0.014,0.9737 ± 0.0076
N#CC(C#N)=C(N)/C(C#N)=C/c1cc(O)c(O)c(O)c1 [Tyrphostin 51],0.989 ± 0.0061,1.013 ± 0.0058,1.02 ± 0.021,1.01 ± 0.011,1.01 ± 0.012,0.996 ± 0.013
O=C(c1ccccc1)c1ccc2n1CCC2C(=O)O (stereo unspecified) [Ketorolac tris salt],0.9873 ± 0.0065,0.969 ± 0.027,0.991 ± 0.017,0.99 ± 0.044,0.989 ± 0.002,0.988 ± 0.012
CCN(CC)CCCC(C)Nc1nc(C)cc(Nc2ccc3nc(C)cc(N)c3c2)n1 (stereo unspecified),0.845 ± 0.0082,0.444 ± 0.019,0.888 ± 0.01,0.688 ± 0.036,1 ± 0.013,0.119 ± 0.0062
CNC(=O)[C@H]1O[C@@H](n2cnc3c(NCc4cccc(I)c4)nc(Cl)nc32)[C@H](O)[C@@H]1O [Chloro-IB-MECA],0.9927 ± 0.0084,0.918 ± 0.014,0.9917 ± 0.0076,1 ± 0.016,0.9923 ± 0.0072,0.9763 ± 0.006
O=C(C[S+]([O-])Cc1ccco1)NC/C=C\COc1cc(CN2CCCCC2)ccn1 (stereo unspecified) [Lafutidine],1.02 ± 0.021,1.02,1.04 ± 0.015,1.03 ± 0.033,1.01 ± 0.01,1.01
C#CCC(Cc1cnc2nc(N)nc(N)c2n1)c1ccc(C(=O)N[C@@H](CCC(=O)O)C(=O)O)cc1 (stereo partly specified) [pralatrexate],0.415 ± 0.03,0.396 ± 0.032,0.628 ± 0.032,0.574 ± 0.014,0.228 ± 0.0091,0.234 ± 0.025
CN(C)CC(c1ccc(O)cc1)C1(O)CCCCC1 (stereo unspecified) [Desvenlafaxine Succinate],1.02 ± 0.015,1.02 ± 0.035,1.01 ± 0.011,1.01 ± 0.014,1.001 ± 0.0078,1.006 ± 0.0075
CN(C)CC(c1ccc(O)cc1)C1(O)CCCCC1 (stereo unspecified) [Desvenlafaxine],0.989 ± 0.028,0.97 ± 0.0036,0.991 ± 0.011,0.978 ± 0.013,0.983 ± 0.016,0.9943 ± 0.0038
O=C(NOCC(O)CO)c1cc(Br)c(F)c(F)c1Nc1ccc(I)cc1F (stereo unspecified),0.62 ± 0.022,0.53 ± 0.028,0.715 ± 0.0062,0.669 ± 0.029,0.64 ± 0.027,0.418 ± 0.011
COc1ccc(S(=O)(=O)N(CCO)c2ccccc2CN(C)C/C=C/c2ccc(Cl)cc2)cc1 [KN-93 Phosphate],1.013 ± 0.0058,0.853 ± 0.029,1.03 ± 0.011,0.888 ± 0.048,1.02 ± 0.01,0.964 ± 0.01
COc1cccc(C(=O)NCCN2CCN(c3ccc(Cl)cc3)CC2)c1,1.01 ± 0.01,0.995 ± 0.023,1.02 ± 0.055,1.005 ± 0.0071,1.013 ± 0.0058,1.013 ± 0.0058
O=C1NC(=O)C(=Cc2ccc(-c3ccc(F)cc3)o2)S1 (stereo in doubt),1 ± 0.018,1 ± 0.014,0.996 ± 0.013,1.01,0.991 ± 0.0027,0.9913 ± 0.0083
"O=C1NC(=O)C(c2ccccc2)(c2ccccc2)N1 [5,5-Diphenylhydantoin]",1 ± 0.014,0.975 ± 0.027,0.988 ± 0.007,0.982 ± 0.013,0.99 ± 0.0078,0.9847 ± 0.0047
CN(C)C/C=C/C(=O)Nc1cc2c(Nc3ccc(F)c(Cl)c3)ncnc2cc1O[C@H]1CCOC1 [Afatinib (BIBW2992)],0.91 ± 0.015,0.761 ± 0.058,0.925 ± 0.022,0.797 ± 0.044,0.8623 ± 0.0057,0.61 ± 0.02
CN(C)C/C=C/C(=O)Nc1cc2c(Nc3ccc(F)c(Cl)c3)ncnc2cc1O[C@H]1CCOC1 [BIBW2992; BIBW2992(Tovok)],0.904 ± 0.02,1.01 ± 0.023,0.9247 ± 0.0074,0.982 ± 0.019,0.897 ± 0.012,0.9953 ± 0.0045
CN1Cc2c(N)cccc2C(c2ccccc2)C1 (stereo unspecified) [Nomifensine maleate],0.999 ± 0.011,0.997 ± 0.022,0.99967 ± 0.00058,1.06 ± 0.064,1.01,1.02 ± 0.011
CNC(=O)c1ccc(C)c(-n2c(C)cc(OCc3ccc(F)cc3F)c(Br)c2=O)c1,0.791 ± 0.021,0.729 ± 0.03,0.771 ± 0.025,0.7697 ± 0.0051,1.007 ± 0.0058,0.9993 ± 0.0011
CNC(=N)NCCC[C@H](N)C(=O)O [NG-Monomethyl-L-arginine acetate],1.001 ± 0.009,0.985 ± 0.022,1.001 ± 0.0081,0.879 ± 0.24,0.9883 ± 0.0097,0.991 ± 0.0079
NC(=O)c1cccc(N)c1 [3-aminobenzamide],1 ± 0.014,1.02 ± 0.032,0.9957 ± 0.0075,1 ± 0.021,1.002 ± 0.0068,1.007 ± 0.0058
NC(=O)c1cccc(N)c1 [3-Aminobenzamide],0.995 ± 0.0052,1.02,0.998 ± 0.0035,1.02 ± 0.01,1.02 ± 0.011,1.017 ± 0.0058
Cc1ccc(-n2nc(C(C)(C)C)cc2NC(=O)Nc2ccc(OCCN3CCOCC3)c3ccccc23)cc1 [BIRB 796 (Doramapimod)],0.806 ± 0.012,0.826 ± 0.03,0.775 ± 0.019,0.816 ± 0.034,0.995 ± 0.005,1.017 ± 0.0058
